Experimental data: PMC4336329 (PLoS ONE, 2015)
The campaign covered roughly 310,000 compounds. About 14,000 (4.5%) showed an effect of 50% or more. The effect is printed as a negative number. Some of the results follow.

Biological target: human ether-à-go-go-related gene (hERG) potassium channel (human, UniProt Q12809)
Assay: primary screen, population patch clamp on CHO cells stably expressing hERG
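Also: peak tail current of the secondary pulse compared with the same well before compound.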

Chain of human ether-à-go-go-related gene (hERG) potassium channel (Q12809 whole entry, looked up): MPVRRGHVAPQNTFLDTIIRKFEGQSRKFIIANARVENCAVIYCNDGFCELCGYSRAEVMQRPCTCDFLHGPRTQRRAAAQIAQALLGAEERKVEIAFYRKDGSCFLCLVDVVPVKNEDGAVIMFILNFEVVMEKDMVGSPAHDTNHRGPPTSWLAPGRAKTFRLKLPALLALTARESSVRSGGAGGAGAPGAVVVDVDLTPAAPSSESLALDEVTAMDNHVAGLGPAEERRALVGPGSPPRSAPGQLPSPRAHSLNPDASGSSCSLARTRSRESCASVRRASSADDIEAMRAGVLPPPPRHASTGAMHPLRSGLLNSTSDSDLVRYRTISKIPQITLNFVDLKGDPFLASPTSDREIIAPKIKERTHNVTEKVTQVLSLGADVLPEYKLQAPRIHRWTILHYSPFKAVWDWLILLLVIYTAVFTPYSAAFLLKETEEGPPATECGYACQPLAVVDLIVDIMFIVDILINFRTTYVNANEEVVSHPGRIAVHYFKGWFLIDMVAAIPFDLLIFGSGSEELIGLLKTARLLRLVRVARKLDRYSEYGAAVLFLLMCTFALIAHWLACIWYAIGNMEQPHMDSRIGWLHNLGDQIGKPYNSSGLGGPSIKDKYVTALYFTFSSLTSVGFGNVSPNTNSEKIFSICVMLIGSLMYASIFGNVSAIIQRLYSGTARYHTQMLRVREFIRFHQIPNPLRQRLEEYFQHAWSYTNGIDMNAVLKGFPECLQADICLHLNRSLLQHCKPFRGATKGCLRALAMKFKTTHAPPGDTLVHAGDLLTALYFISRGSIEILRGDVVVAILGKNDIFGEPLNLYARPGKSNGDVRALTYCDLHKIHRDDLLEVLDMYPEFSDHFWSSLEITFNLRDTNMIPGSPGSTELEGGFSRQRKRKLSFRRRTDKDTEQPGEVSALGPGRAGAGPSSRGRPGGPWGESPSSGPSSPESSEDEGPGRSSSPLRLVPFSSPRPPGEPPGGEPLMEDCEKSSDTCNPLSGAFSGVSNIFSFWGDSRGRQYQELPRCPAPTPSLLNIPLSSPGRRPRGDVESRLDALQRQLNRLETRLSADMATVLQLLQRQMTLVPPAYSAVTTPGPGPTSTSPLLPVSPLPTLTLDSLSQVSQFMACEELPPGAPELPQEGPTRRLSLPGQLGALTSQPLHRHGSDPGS

Compound | hERG current change (%, negative = inhibition) at 10uM [%]
CN(CCO)c1ccc(/C=N/Nc2nncc3ccccc23)cc1 | -14.3
O=C1NC(=O)C(=Cc2ccc(Sc3ccccc3)o2)C(=O)N1 | 10.4
COc1ccc(C2C(C#N)=C(C)NC(C)=C2C#N)c(OC)c1 | -3.09
NC1=NC(=Nc2ccccc2)c2ccccc21 | 8.33
Cc1cc(C)cc(OCC(=O)O/N=C(\N)c2ccccn2)c1 | -6.54
O=C(CSc1ncnc2c1cnn2-c1ccc(F)cc1)NCC1CCCO1 (stereo not drawn) | 13.7
O=C(NCCCN1CCCC1)C1CCC(=O)N1C1CCCCC1 (stereo not drawn) | 12.9
COc1ccccc1-c1nnc(C2CCN(S(=O)(=O)c3ccccc3[N+](=O)[O-])CC2)o1 | -45.2
CCn1c(=O)c(C(=O)NNC(=O)c2ccccc2Cl)c(O)c2ccccc21 | 7.09
O=C(NCc1ccco1)c1ccccc1-c1ccc(C(F)(F)F)cc1 | -2.99
COc1ccc(CNC(=O)CN(C(=O)CCC(=O)Nc2ccccn2)c2ccc(C)cc2)cc1 | -33.7
OCC1CCCCN1C(=S)Nc1ccc(Cl)cc1Cl (stereo not drawn) | 11.8
Cc1cc(=O)oc2cc(OCC(O)Cn3ccnc3)ccc12 (stereo not drawn) | 9.78
CCOc1ccc(S(=O)(=O)NCCC(=O)NC(C)CCc2ccccc2)cc1 (stereo not drawn) | -8.42
COc1ccc2nc(SCC(=O)NC3CC3)c(C#N)cc2c1 | 12.6
O=C(CN1CCN(S(=O)(=O)c2ccc(Br)cc2)CC1)Nc1ccccc1C(=O)c1ccccc1 | 1.26
CC1(C)C2CCC1(C)C(NCC(O)COc1ccc(C#N)cc1)C2.O=C(O)C(=O)O (stereo not drawn) | -45.1
O=C1Nc2ccccc2C1=Nc1cccc([N+](=O)[O-])c1 | 21.8
Nc1cc(=O)[nH]c(SCC(=O)Nc2ccc(S(=O)(=O)N3CCOCC3)cc2)n1 | -6.65
O=C(CSc1nnc(NC(=O)c2ccco2)s1)Nc1ccccc1F | 17.7
CCC(C)C(NC(=O)C1CCC(C)CC1)C(=O)NCCCN1CCCCC1CC (stereo not drawn) | -37.5
Cc1cccc(N2CC(C(=O)Nc3nnc(SCC(=O)N4CCOCC4)s3)CC2=O)c1 (stereo not drawn) | 9.3

Compound | hERG current change (%, negative = inhibition) at 10uM [%]
C=CCOc1cccc(C(=O)Nc2ncn[nH]2)c1 | 13.9
CCNc1nc(NC(C)C)nc(SCCOC(=O)c2ccccc2)n1 | -33.7
COc1ccc2c(c1OC)C(=O)OC2C1c2c(cc3c(c2OC)OCO3)CCN1C.Cl.O (stereo not drawn) | -13.7
Cc1nn(-c2ccccc2)c(N2CCCC2)c1/C=C1\N=C(c2ccc(OC(C)C)cc2)OC1=O | 17.5
Cn1c(=O)n(C)c2cc(/C=N/NC(=O)c3cc4cc(Br)ccc4o3)ccc21 | -3.8
CCOC(=O)C1(Cc2cccc(F)c2)CCN(C(=O)c2cscn2)CC1 | -12.7
Cc1cc(C)n(-c2nc3ccccc3nc2N2CCN(S(=O)(=O)c3ccc4ccccc4c3)CC2)n1 | 1.47
COc1cccc(CNC(=O)CN2C(=O)CSc3ccc(S(=O)(=O)N4CCCC4)cc32)c1 | -42.3
COCCNc1nc(=S)[nH]c2cc(OC)c(OC)cc12 | 3.17
COc1cccc(OCCOCC(O)CN2CCN(Cc3ccc(Cl)cc3)CC2)c1.Cl (stereo not drawn) | -72.3
Cn1c(Cn2cnc3ccccc32)nnc1SCC(=O)CC(=O)Nc1ccccc1 | 0.103
CCOC(=O)c1cc(NC(=O)N(CC)C2CCCCC2)c(C)nc1C | -12.7
O=C1c2ccccc2C(O)N1Cc1ccccc1 (stereo not drawn) | 4.9
CCC(C)c1ccc(NC(=S)NCCn2cc(Cl)cn2)cc1 (stereo not drawn) | -0.708
C/C(CCc1ccccc1)=N\NC(=O)CC(=O)NCCc1ccccc1 | 7.61
O=C(NCc1ccccn1)c1ccccc1OCc1ccc(Cl)cc1Cl | -1.04
COc1ccc(/C=N/Nc2nc(C)cc(-c3ccccc3)n2)c(OC)c1 | -2.21
CCN(CC(=O)Nc1c(F)cccc1F)C(=O)c1ccc(OCc2c(C)noc2C)cc1 | -4.92
C/C(=N\N1CCN(c2ccccc2)CC1)c1cccs1 | 0.697
CC1(C)CC(NC(=O)c2cc(COc3cccc(C(F)(F)F)c3)on2)CCO1 (stereo not drawn) | -15.6
O=C(Nc1c(C(=O)N2CCC(N3CCCCC3)CC2)oc2ccccc12)c1ccc(F)cc1 | -65.8
Cc1ccc(NCc2nnc(SCC(N)=O)n2CC2CCCO2)c(C)c1 (stereo not drawn) | 8.71

Compound | hERG current change (%, negative = inhibition) at 10uM [%]
CC(=O)Oc1ccc(C(=O)[C@H]2[C@H]3C(=O)N(c4cccc5ccccc45)C(=O)[C@H]3[C@@H]3C=CC=NN32)cc1 | 11.5
Cc1cccc(C)c1NC(=O)COc1ccc2c(C)c(Cc3ccccc3)c(=O)oc2c1C | 5.03
CCCCNC1=C(Br)C(=O)CC(C)(C)C1 | -2.82
CCOC(=O)c1cnc(Nc2nc3ccccc3o2)nc1C | -16.2
CC(=O)NC(Cc1ccccc1)C(=O)NC1CCN(C(=O)c2ccc([N+](=O)[O-])cc2)CC1 (stereo not drawn) | -10.6
COc1ccccc1C1C(C(C)=O)=C(O)C(=O)N1CCc1ccccc1 (stereo not drawn) | 15.4
O=[N+]([O-])c1cccc(N(CC(O)CN2CCCC2)S(=O)(=O)c2ccccc2)c1 (stereo not drawn) | -62.4
COc1ccc(CCC(C)NCc2cc(OC)cc(OC)c2)cc1 (stereo not drawn) | -42.3
CC(=O)Oc1ccc2nc(-c3cccs3)oc(=O)c2c1 | 8.53
CC(C(=O)Nc1ccccc1)N1C(=O)c2ccccc2C1=O (stereo not drawn) | 8.45
O=C(NCc1ccncc1)C(=O)NCc1ccco1 | 0.559
CC1Cc2ccccc2N1CC(=O)Nc1ccc2c(c1)OC(F)(F)O2 (stereo not drawn) | -9.07
Cc1csc(=O)n1CC(=O)OCc1nnc(-c2ccc(Cl)cc2)o1 | -2.32
COc1cc(NS(=O)(=O)c2ccc(NC(=S)NC(=O)c3ccc(F)c(F)c3)cc2)nc(OC)n1 | 4.18
COc1ccc(C(OC(=O)c2ccco2)C(=O)NCC2CCCO2)cc1 (stereo not drawn) | 9.52
COc1ccc(-c2nnc(CSc3nc4ccccc4c(=O)n3CC3CCCO3)o2)cc1OC (stereo not drawn) | -49
O=C(CO/N=C/c1ccccc1O)N1CCc2ccccc21 | 8.71
COC(=O)c1ccc2nc(NC(=O)C(C)(C)C)sc2c1 | -7.64
CCCCCCC1C(C#N)=C(N)OC2=C1C(=O)CCC2 (stereo not drawn) | -12
NNc1nc(-c2ccccc2)c2ccccc2n1 | 3.34
COC(=O)c1ccc2c(=O)n3c(nc2c1)SCC(c1ccccc1)=N3 | -2.12
C=CCn1nc2ccccc2c1OC | 3.76

Compound | hERG current change (%, negative = inhibition) at 10uM [%]
Cc1cc(C(=O)COC(=O)c2ccc3c(c2)NC(=O)CS3)c(C)n1CC1CCCO1 (stereo not drawn) | 1.05
CCOc1ccccc1Nc1nnc(SC(C)C(=O)Nc2nc(-c3ccccc3)cs2)s1 (stereo not drawn) | 1.46
COn1c(SC2CCCCC2)nc2ccccc2c1=O | -7.68
CC(=O)c1c(C)[nH]c(C(=O)OCC(=O)Nc2cccc(S(=O)(=O)N(C)C)c2)c1C | 14.5
Cc1cc(SCC(=O)OCC(=O)N2CCN(C(=O)c3ccco3)CC2)c(C)cc1Br | -50.2
OC1OC[C@@H](O)[C@H](O)[C@H]1O (stereo partly drawn) | 15.6
O=S1(=O)N=C(Oc2ccccc2)c2ccccc21 | 5.14
CCCSc1cc(N2CCN(C)CC2)nc(-c2ccc(OC)cc2)n1.Cl | -29.2
COc1ccccc1NC(=O)c1cc(S(=O)(=O)N2CCC3(CC2)OCCO3)ccc1F | -4.73
CCOC(=O)c1cc2sccc2n1CC(=O)Nc1ccc2c(c1)OCCO2 | 18.8
O=C(O)c1c[nH]c(=O)c2ccccc12 | 5.82
O=S(=O)(NCCc1ccccc1)c1ccc(S(=O)(=O)N2CCCCC2)cc1 | 15.1
Cc1ccc(-c2cc(C(=O)N/N=C/c3ccccc3O)n[nH]2)o1 | 26.9
COc1cc(C2C(C(=O)c3cc4ccccc4o3)=C(O)C(=O)N2c2cc(C)on2)cc(OC)c1OC (stereo not drawn) | 24.6
O=C(Nc1cc(Cl)ccc1O)C1CC(c2ccccc2O)=NO1 (stereo not drawn) | -5.36
NC(=S)N/N=C1\CC(c2ccc3c(c2)OCCCO3)Oc2ccc(F)cc21 (stereo not drawn) | 6.23
CN(C)S(=O)(=O)Nc1ccc(Br)cc1F | 11.7
CN1C(=O)S/C(=C\c2ccc(-n3cncn3)cc2)C1=O | -3.72
COC(=O)C1CCN(C(=O)c2ccc(NC(C)=O)cc2)CC1 | 1.4
COCCNC(=O)C(c1cccc(OC)c1)N(C(=O)Cn1nnc2ccccc21)c1cccnc1 (stereo not drawn) | 7.66
CCN(CC)S(=O)(=O)c1ccc(Cl)c(C(=O)Nc2nncs2)c1 | 14.4
